Experimental data from the supplement of paper PMC10338343.
± gives the standard deviation. The entries are a selection whose mix differs from that of the whole data set.

system: MIWI (PIWIL1) piRISC loaded with piRNA #1 (30 nt); test: pre-steady-state target cleavage rate (min^-1); MIWI and MILI are mouse PIWI proteins and EfPiwi is from a freshwater sponge; tags in brackets are library labels; higher = faster piRNA-guided slicing of the target; settings: guide: piRNA #1 5'p-UGAGGUAGUAGGUUGUAUAGUAUCCAGAGG; auxiliary factor: 500 nM mouse GTSF1
Outline: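 The method was Cleave-'n-Seq, in which uncleaved targets from a transcribed, DNA-blocked target RNA library were sequenced after exposure to active affinity-purified piRISC carrying one synthetic guide, with or without GTSF1 partner protein. Reactions contained 0.1 nM library, 1 nM piRISC and, where present, 500 nM GTSF1 in HEPES–potassium acetate buffer at 33 °C for 0–8 or 0–960 min. Reads were normalised to depth and to weakly complementary targets, three trials were pooled, and k3 was capped at 0.0001 min^-1. The pre-steady-state cleavage rate came from a burst-and-steady-state fit.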

Row | Sequence | pre-steady-state target cleavage rate
1 | GGAGACGAUGACUAUACAACCUACUACCUCA | 1.41 ± 0.14
2 | GGAGAGGAUACUAUACAACCUACUACGACA | 0.14 ± 0.028
3 | GGAGUGCUAACUAUACAACCUACUACCUCA | 1.22 ± 0.082
4 | GGUCAGGAUACUAUACAACCUACUACCUCA | 1.69 ± 0.089
5 | GCUCUGGAUACUAUACAACCUACUACCAUCA | 1.66 ± 0.11
6 | GGAGACCUUCCUAUACAACCUACUACCUCA | 1.44 ± 0.2
7 | GGAGACCCUACUAUACAACCUACUACCUCA | 1.66 ± 0.12
8 | GCUCUGGAUACUAUACAUCCUUCUACCUCA | 0.322 ± 0.026
9 | GCUCUGGAUACUAUAGAACCUACUAGCUCA | 0.0073 ± 0.0034
10 | GGUGUGGAUACUAUACAACCUACAACCUCA | 0.35 ± 0.05
11 | GGUCUGGAUACUUUAGAACCUACUACCUCA | 0.554 ± 0.039
12 | GGAGACCUAUGUAUACAACCUACUAACCUCA | 0.0929 ± 0.015
13 | GGUCUGGAUUCUAUACAACGUACUACCUCA | 0.989 ± 0.06
14 | GGAGUGGAUACUAUACAACCUAGUACGUCA | 0.00325 ± 0.0019
15 | GGAGACCUUACAAUACAACCUACUACCUCA | 0.602 ± 0.081
16 | GGAGACCUAUUUAUACAACCUACUACCUCA | 0.332 ± 0.046
17 | GGAGACGAUACUAUACAACCUACUACCCCA | 0.769 ± 0.083
18 | CCUCUGGAUACUAUACAAGCUACUACGUCA | 1.03 ± 0.05
19 | GGAGACGAUACUUUACAACCUACUACCUCA | 1.56 ± 0.088
20 | GGAGACCUUACUAUUCAACCUUCUACCUCA | 0.323 ± 0.028

Row | Sequence | pre-steady-state target cleavage rate
21 | CCUCUCGAUACUUUACAACCUACUACCUCA | 2.13 ± 0.14
22 | GGAGACCAUACUAUACAACCAACUACCUGA | 0.085 ± 0.012
23 | GGAGAGGAUACUAAUCAACCUACUACCUCA | 1.01 ± 0.063
24 | GGACUGGAAAGUAUACAACCUACUACCUCA | 0.782 ± 0.12
25 | GGUCUGGAUACUAUACAACGUACAACCUCA | 0.432 ± 0.06
26 | GGAGAGGAUACUAUACUACCUACAACCUCA | 0.41 ± 0.043
27 | GGUGUGGAUACUAUACAACCUACUAGCUCA | 0.162 ± 0.042
28 | GGAGACCUAUGAAUACAACUCUACUACCUCA | < 0.0001
29 | CCUCUGGAUACUAUACAACCUACUACCUACA | 1.79 ± 0.096
30 | GCUCUCGAUACUAUACAACCUACUACCUGA | 1.07 ± 0.11
31 | GCUCUGGAUACUAUACAAGCUACUACCUGA | 0.873 ± 0.057
32 | GGUCUGGAUACUAUACAACCUAAUACCUCA | 0.635 ± 0.05
33 | CCUCUGGAUACUAUACAACACUACUACCUCA | 0.00935 ± 0.0044
34 | GGAGACGAUACUAUACGACCUACUACCUCA | 1.26 ± 0.063
35 | GGAGAGCAUACUAAACAACCUACUACCUCA | 1.39 ± 0.1
36 | GGUCUGCUAACUAUACAACCUACUACCUCA | 1.27 ± 0.11
37 | GGAGACCUAUCUAUACAACCUACUACCUCU [g2:g20:cont:t1U] | 1.05 ± 0.087
38 | CCUCUGGAUACUUUACAACCUACUAGCUCA | 1.04 ± 0.084
39 | GGAGACCUAUCUAUACAACCUACUACCCA | 0.18 ± 0.03
40 | GGAGACCUUACUAUACAACCUACAUCCUCA | 0.298 ± 0.021
